B1: LINE1-full (parent)
chain: UACGUAGGUGGUUUUCCCCUGAUAGUGCUAAGGGGGCCUGGAAGUUUGGACUGGGCAGAGCUCAACACAGCGUGGCAAAGUGGCUGUGGCUAGACUGCCUCUCUGGAUUCCUCGUCACUCAGCAGGGCAUCUCUGAGAGAAAUGCC

Read counts are not given, so values of variants with three or more changes are uncertain.

The series covers variants of B1. The experiment in a line: self-cleavage, relative activity (ratio to wild type); higher = more cleavage; in vitro, sequencing; the parent is a self-cleaving ribozyme.
Regarding UACGUAGGUGGUUUUCCCCUGAUAGUGCUGAGGGGGCCUGGAAGUUUGGGCUAGGCAGAGCUCAACACAGCGUGGCAAAGUGGCUGUGGCUAGGCUGCCUCUCUGGAUUCCUCGUCACUCAGCAGGGCUUCUCUGAGGGAAAUGCC [A30G A50G G53A A94G A129U A138G], the self-cleavage is 0.29.
On to UACGUAGGUGGUUUUCCCCUGAUAGUGCGAAGGGGGCCUGGAAGUUUGGACUGGGCAGAGCUCAACACAGCGUGGCAAAGUGGCUGUGGCUAGACUGCCUCUCUGGAUUCCUCGUCACUCACCAGGGCUUCUCUGAGAGAAAUGCC [U29G G122C A129U], for which the self-cleavage came to 0.89.
Consider UACGUAGGUGGUUUUCCCCUGAUAGUGCGGAGGGGGCCUGGGAGUUUGGACUGGGCAGAGCACAACACAGCGUGGCAAAGUGGCUGUGGCUAGACUGCCUCUCUGGAUUCCUCGUCACUCAGCAGGGCAUCUCUGAGAGAAAUGCC [U29G A30G A42G U62A], for which the self-cleavage stood at 0.
Under UACGUAGGUGGUUUUCCCCUGAUAGUGCCAAGGGGGCCUGGAAGUUUGGACUGGGCAGAGCUCAACACAGCGUGGCAAAGUGGCCGUGGCUAGACUGCCUCUCUGGAUUCCUCGUCACUCAGCAGGGCAUCUCUGAGAGGAAUGCC [U29C U85C A140G] stands 0.44; under UACGUAGGUGGUUUUCCCCUGAUAGUGCCAAGGGGGCCUGGAAGUUUGGACUGGGCAGAGCUCAACACAGCGUGGCAAAGUGGCUGCGGCUAGACUGCCUCUCUGGAUUCCUCGUCACUCAGCGGGGCAUCUCGGAGAGAAAUGCC [U29C U87C A124G U134G], 0.
On to UACGUAGGUGGUUUUCCCCUGAUAGUGCGAAGGGGGCCUGGAAGCUUGGACUGGGCAAAGCUCAACACAGCGUGGCAAAGUGGCUGUGGCUAGACUGCCUCUCUGGAUUCCUCGUCACUCAGCAGGGCAUCUCUGAGAGAAAUGCC [U29G U45C G58A], for which the self-cleavage amounted to 0.26.
As to UACGUAGGUGGUUUUCCCCUGAUAGUGCCAAGGGGGCCUGGAAGUUUGGACUGGGCAGAGCUCAACACAGCGUGGCAAAGUGGCCGUGGCUAGACUGCCUCUCUGGAUUCCUCGUCGCUCAGCAGGGCAUCUCUGAGAGAAAUGCC [U29C U85C A117G], the self-cleavage stood at 0.73.
For UACGUAGGUGGUUUUCCCCUGAUAGUGCCAAGGGGGCCUGGAAGUUUGGACUGGGCAGAGCUCAACACAGCGUGGCAAAGUGGCUGUGGCUAGACUGCCCCUCUGGAUUCCUCGUCACUCAGCAGAGCAUCUCUGAGAGAAAUGCC [U29C U100C G126A], the self-cleavage was found to be 2.16.
Consider UACGUAGGUGGUUUUCCCCUGAUAGUGCGAAGGGGGCCUGGAAGUUAGGACUGGGCGGAGCUCAACACAGCGUGGCAAAGUGGCUGUGGCUAGACUGCCUCUAUGGACUCCUCGUCACUCAGCAGGGCAUCUCUGAGAGAAAUGCC [U29G U47A A57G C103A U108C], for which the self-cleavage amounted to 1.7.
For the variant UACGUAGGUGGUUUUCCCCUGAUAGUGCUGAGGGGGCCUGGAUGUCUGGACUGGGCAGAGCUCAACACAGCGUGGCAAAGUGGCUGUGGCUAGACUGCAUCUCUGGAUUCCUCGUCACUCAGCAGGGCAUCUCUGAGAGAAAUGCC [A30G A43U U46C C99A], the self-cleavage stood at 1.44.
For the variant UACGUAGGUGGUUUUCCCCUGAUAGUGCUCAGGGGGCCAGGAAGUUUGGACUGGGCAGAGCUCAACACAGCGUGGCAAAGUGGCUGUGGCUAGACUGCCUCUCUGGAUUCCUCGCCACUCAGCAGGGCAUCUCUGAGAGAAAUGCC [A30C U39A U115C], the self-cleavage is 1.72.
Regarding UACGUAGGUGGUUUUCCCCUGAUAGUGCUGAGGGGGCCUGGGAGUUUGGACUGGGCAGAGCUCAACACAGCGUGGCAUAGUGGCUGUGGCUAGACUGCCUCUCUGGAUUCCUCGUCACUCAGCAGGGCAUCCCUGAGAGAAAUGCC [A30G A42G A78U U132C], the self-cleavage was 1.51.
On to UACGUAGGUGGUUUUCCCCUGAUAGUGCCAAGGGGGCCUGGAAGUUUGGACUGGGCAGAGCUCAACACAGCGUGGCAAAGUGGCUGUGGCUAGACUGCCUCUCAGGACUCCUCGUCACUCAGCAGGGCAUCUCUGAGAGAAAUGCC [U29C U104A U108C], for which the self-cleavage turned out to be 1.56.
Under UACGUAGGUGGUUUUCCCCUGAUAGUGCUCAGGGGGCCUGGUAGUUUGGACUGGGCAGAGCUCAACACAGCGUGGCAAAGUGGCUGUGGCUAGACUGCCUCUCUGGAUUCCUCGUCACUCAGCAGGGCAACUCUGAGGGAAAUGCC [A30C A42U U130A A138G] stands 1.39; under UACGUAGGUGGUUUUCCCCUGAUAGUGCCAAGGGGGCCUGGAAGUUUGGACUGGGCAGAGCUCAACACAGCGUGGCAAAGCGGCUGUGGCUAGACUGCCUCUCUGGAUUCCUCGUCACUCAGCAGGGUAUCUCUGAGAGAAAUGCC [U29C U81C C128U], 1.62.
As for UACGUAGGUGGUUUUCCCCUGAUAGUGCCAAGGGGGCCUGGAAGUUUGGACUGGGCAGAGCUCAACACAGCGUGGCAAAGUGGCUGCGGCUAGACUGCCUCUCUGGAUUCCUCGUCACUCAGCAGGGCAUCUCUGAGAGAAACGCC [U29C U87C U143C], the self-cleavage is 0.
Regarding UACGUAGGUGGUUUUCCCCUGAUAGUGCCAAGGGGGCCUGGAAGUUUGGACUGGGCAGAGCUCAACACAGCGUGGCAAAGUGGCUGCGGCUAGACUGCCUCUCUGGAUUCCUCGUCACUCAGCAGGGCAUCCCUGAGAGAAAUGCC [U29C U87C U132C], the self-cleavage came out at 0.
With UACGUAGGUGGUUUUCCCCUGAUAGUGCCAAGGGGGCCUGGAAGUUUGGACUGGGCAGAGCUCAACACAGCGUGGCAAAGUGGCCGUGGCUAGACUGCCUCUCUGGAUUCCUCGUCACUCAGCAGGGCAUCUCUGGGAGAAAUGCC [U29C U85C A136G], the self-cleavage was 0.21.
Under UACGUAGGUGGUUUUCCCCUGAUAGUGCCAAGGGGGCCUGGAAGUUUGGACUGGGCAGAGCUCAACACAGCGUGGCAAAGUGGCUGUGGCUAGACUGCCUCUCUGGACUCCUCGUCACUCAGCUGGGCAUCUCUGAGAGAAAUGCC [U29C U108C A124U] stands 2.01.
